# In PubChem BioAssay AID1347041 (National Center for Advancing Translational Sciences (NCATS), 2019):
# About 740 (0.15%) of roughly 480,000 compounds were called active. The shares of active, inactive and inconclusive entries below differ from those in the screen. Rule as the data show it: active = activity change below about -30%; inconclusive = mostly about -25% to -30%; inactive = weaker than that. Some compounds were tested as several samples or in several runs, with calls that do not always agree.
# Target: L-lactate dehydrogenase A chain (Homo sapiens) (UniProt P00338)
# Assay: qHTS assay for inhibitors of human lactate dehydrogenase;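 also: values are at about 110 or 230 µM; plate controls were DMSO wells for no effect and wells without enzyme for full effect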
# Settings: purified LDHA, NADH/diaphorase-resazurin fluorescence; hits give low values
# In short: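 Human LDH5 (2 nM) was incubated with 0.06 mM NADH and 0.2 mM pyruvate for 5 min at room temperature in Tris pH 7.4. Remaining NADH was coupled through diaphorase/resazurin, and resorufin fluorescence was read at 0 and 20 min.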
row,SMILES,activity change
1,O=C(O)C/C(=C/c1ccsc1)c1nc2ccccc2s1,inconclusive: -25.1%
2,CC(=O)NC1CC(C)(C)NC(C)(C)C1,inconclusive: -27.3%
3,O=C(CN1CCN(Cc2ccccc2)CC1)N1CCCc2ccccc21,inconclusive: -29.2%
4,Oc1ccc(Br)cc1/C=N/n1c(-c2ccccc2)n[nH]c1=S,inactive: -4.25%
5,COc1cccc(CN(C)CC(=O)NC(=O)NC2CCCC2)c1OC,inconclusive: -25.9%
6,O=C(NNC(=O)c1cc2cc3ccccc3nc2s1)c1cccc(Cl)c1,active: -51.4%
7,COc1cccc(C(=O)Nc2ccc3oc(C)nc3c2)c1OC,inactive: 1.53%
8,Cc1ccc2ccc3ccc(C)nc3c2n1,inconclusive: -26.9%
9,C[n+]1cc(-c2ccccc2)n2c1CCCCC2,inconclusive: -27.5%
10,CC(=O)Nc1ccc(C23CC4CC(CC(Cl)(C4)C2)C3)cc1,inconclusive: -25.4%
11,O=C(Cn1c(=O)c2c(ncn2C2CCCC2)n(Cc2ccccc2)c1=O)N1CCOCC1,inactive: 3.44%
12,Brc1ccc(-c2noc(C3CCCCC3)n2)cc1,inconclusive: -25.2%
13,Cc1ccc(OCC(=O)Nc2ccc3c(c2)nc(CCn2ccccc2=O)n3C)cc1,inconclusive: -25.9%
14,Oc1ccc(-c2nc(-c3cc4ccccc4o3)cs2)cc1,inconclusive: -26%
15,COCCCNc1oc(/C=C/c2ccc(OC)c(OC)c2)nc1C#N,inconclusive: -26.5%
16,O=C(NCc1ccc(Cl)cc1)C(=O)Nc1cccc2[nH]ccc12,inconclusive: -29.7%
17,O=C(O)c1cccc(-n2cccc2/C=C2/NC(=O)N(c3cccc(Cl)c3)C2=O)c1,active: -30.1%
18,CCN(CC)C(=O)CN(C1CCCCC1)S(=O)(=O)c1ccc(Br)cc1,active: -36.7%
19,Cc1ccc(NC(=O)CN2C(=O)N/C(=C\c3cccn3-c3cccc(-c4nn[nH]n4)c3)C2=O)cc1,inconclusive: -29.9%
20,NC(=O)COc1ccc(/C=C2\C(=O)ON=C2c2ccccc2)cc1,active: -57.2%
21,Cc1cc(C2=NNC(=Nc3ccccc3)SC2)c(C)n1CC1CCCO1 (stereo unspecified),active: -36.3%
22,COc1ccc(C2Nc3ccccc3C(=O)N2c2ccc(F)cc2)cc1CSc1ccccn1 (stereo unspecified),inactive: -6.5%
23,N#Cc1ccc(C(=O)N2CCN(c3oc(C4CC4)nc3C#N)CC2)cc1,inconclusive: -29.9%

row,SMILES,activity change
1,CCc1nc2ccc(C(=O)NCc3ccccc3OC)cn2c1N(CC)Cc1cccc(Br)c1,inactive: 0.405%
2,Cn1ncc2c(SCc3nc4ccccc4n3C(F)F)ncnc21,inconclusive: -26.8%
3,COc1ccc(C(=O)Nc2cccc(-c3nc4cc(Cl)ccc4o3)c2)c(OC)c1,inactive: -0.549%
4,CCC(C(=O)Nc1cccc(OC)c1)n1nnc(C(=O)OC)c1C(=O)OC (stereo unspecified),inactive: 1.23%
5,COc1ccccc1NC(=O)C(C)Sc1nccn1C (stereo unspecified),inactive: -14.7%
6,CCOC(=O)C(=O)CC(=O)c1ccc(Cl)cc1Cl,inactive: 4.26%
7,CCCCn1nnc(NC(=O)COc2ccc(C(C)(C)C)cc2)n1,inconclusive: -29.4%
8,Cc1cc(Cl)c2cccc(C(F)(F)F)c2n1,inactive: 3.59%
9,COc1cc(OC)c(NC(=O)c2cc(C(C)=O)n3ccccc23)cc1Cl,inactive: 0.0162%
10,C=CCc1cc(OC)ccc1OCCCCn1cncn1,inconclusive: -29.8%
11,CCc1c(C)sc2c1c1nc(-c3cccnc3)nn1c(=O)n2CC(=O)N1CCOCC1,inactive: 3.46%
12,COc1ccc(S(=O)(=O)N2CCN(C(=O)c3cc(-c4ccccc4OC)n[nH]3)CC2)cc1,inactive: -3.47%
13,COc1ccc(CN(C)C2CCN(C)CC2)cc1OC,inconclusive: -26.8%
14,O=[N+]([O-])c1cc(Br)cc(C=Nc2ccc3c(c2)OCO3)c1O,inactive: 7.91%
15,O=C1ON=C(c2ccccc2)/C1=C/c1ccccc1,inconclusive: -27%
16,CC(CNC(=O)c1cc(-c2ccccc2)n[nH]1)c1ccccc1 (stereo unspecified),inactive: -5.37%
17,Cc1cc2c3ccc(C)n3ccn2c1,inconclusive: -26.8%
18,CCOc1cc(/C=C(/C#N)C(=O)Nc2ccccc2C(=O)O)ccc1OC,inconclusive: -26%
19,O=C(Nc1cccc(F)c1)N1CCC(n2c(=O)[nH]c3ccccc32)CC1,inactive: -5.62%
20,COc1ccc(NC(=O)CSc2nnnn2-c2ccc(F)cc2)cc1,inconclusive: -26.6%
21,O=C(O)CN1C(=O)/C(=C\c2cccc(OCc3ccccc3)c2)SC1=S,inconclusive: -26.2%
22,O=C(/C=C/c1ccco1)Nc1cccc(C(=O)Nc2ccccc2C(=O)O)c1,inconclusive: -25.2%
23,Cc1ccc([C@H]2C[C@@H](O)[C@H](n3cc(COC(=O)c4ccccc4)nn3)CN2C(=O)c2cccs2)cc1,inconclusive: -28%
